According to the supplement of paper PMC7125110:
± gives the standard error. This sample is rich in variants without activity.

B1: glmS ribozyme (parent)
chain: AUAAAAGCGCCAGAACUACAGAAAUGUAGUUGACGAGGAGGAGGUUUAUCGAAUUUUCGGCGGAUGCCUCCAAA

Key:
Details in all cases: with glucosamine-6-phosphate
glucosamine-6-phosphate [1] = variants of: B1; assay: self-cleavage kobs at 640 uM GlcN6P; higher = faster cleavage; RNA array
Outline: (§1)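 Sequenced MiSeq chips were the platform: E. coli RNA polymerase transcribed barcoded ribozyme variants on them in situ, and a hybridised Cy3 probe tracked these at 37 °C. After glucosamine-6-phosphate (40 μM to 10 mM) in HEPES/KCl/Mg(OAc)2 buffer was flowed in, tiles were imaged over ~14 h. Signals normalised to baseline and to non-cleaving reference variants were reduced to per-tile medians and fit to one- or two-exponential decays to obtain kobs. kcat and KM were derived through weighted Michaelis–Menten fits across concentrations.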

glucosamine-6-phosphate [2] = variants of: B1; assay: self-cleavage kobs at 2500 uM GlcN6P; higher = faster cleavage; RNA array
Outline: as §1

glucosamine-6-phosphate [3] = variants of: B1; assay: self-cleavage kobs at 160 uM GlcN6P; higher = faster cleavage; RNA array
Outline: as §1

glucosamine-6-phosphate [4] = variants of: B1; assay: self-cleavage kobs at 10000 uM GlcN6P; higher = faster cleavage; RNA array
Outline: as §1

Variant | self-cleavage kobs at 640 uM GlcN6P (glucosamine-6-phosphate [1]) [s⁻¹] | self-cleavage kobs at 2500 uM GlcN6P (glucosamine-6-phosphate [2]) [s⁻¹] | self-cleavage kobs at 160 uM GlcN6P (glucosamine-6-phosphate [3]) [s⁻¹] | self-cleavage kobs at 10000 uM GlcN6P (glucosamine-6-phosphate [4]) [s⁻¹]
A33U A36G C50A | < 1e-05 | < 1e-05 | – | –
A33U C34A G41U | < 1e-05 | – | < 1e-05 | –
A33U G44U C50U U54G U55A U56C G62U C70U | < 1e-05 | – | – | –
A33U U65C C71A | < 1e-05 | – | – | –
C34A A48U | < 1e-05 | < 1e-05 | < 1e-05 | < 1e-05
C34A G66C | < 1e-05 | – | < 1e-05 | < 1e-05
C34A U47G U54A C71G | < 1e-05 | – | – | –
C34G A64C U69C | < 1e-05 | – | – | –
C34G G40U G41A C58U | < 1e-05 | – | < 1e-05 | –
C34U A36G G43A | < 1e-05 | – | – | –
C34U A39U C58A | < 1e-05 | – | – | –
C34U A42C G59A | < 1e-05 | < 1e-05 | – | –
C34U A52U | < 1e-05 | < 1e-05 | < 1e-05 | < 1e-05
C34U A53G A64U | < 1e-05 | < 1e-05 | – | –
C34U G44C G63U A64C | < 1e-05 | – | – | –
C34U G59C C61A | < 1e-05 | < 1e-05 | < 1e-05 | –
C34U U49A C67U | < 1e-05 | < 1e-05 | – | –
C34U U56C | < 1e-05 | < 1e-05 | < 1e-05 | < 1e-05
G35A C50U A52G | < 1e-05 | < 1e-05 | – | –

Variant | self-cleavage kobs at 640 uM GlcN6P (glucosamine-6-phosphate [1]) [s⁻¹] | self-cleavage kobs at 2500 uM GlcN6P (glucosamine-6-phosphate [2]) [s⁻¹] | self-cleavage kobs at 160 uM GlcN6P (glucosamine-6-phosphate [3]) [s⁻¹] | self-cleavage kobs at 10000 uM GlcN6P (glucosamine-6-phosphate [4]) [s⁻¹]
G35C A48U C68A | < 1e-05 | < 1e-05 | < 1e-05 | –
G35C C50G G59A | < 1e-05 | – | – | –
G35C C50G G60U | < 1e-05 | – | – | –
G35C G40A U46G G66A | < 1e-05 | < 1e-05 | – | –
G35C U45G U57C G59U | < 1e-05 | – | – | –
G35C U65C G66A | < 1e-05 | < 1e-05 | < 1e-05 | –
G35C U69C | < 1e-05 | < 1e-05 | < 1e-05 | < 1e-05
G35U A36G C61A | < 1e-05 | – | – | –
G35U G38U A64U | < 1e-05 | – | < 1e-05 | < 1e-05
A36C C50A | < 1e-05 | – | – | < 1e-05
A36C G37C U46A A48G C70G | < 1e-05 | – | – | –
A36C G38C G63C | < 1e-05 | < 1e-05 | – | –
A36C G41C A64C | < 1e-05 | – | – | –
A36G A42U U56C | < 1e-05 | < 1e-05 | < 1e-05 | –
A36G A48C C50U | < 1e-05 | – | – | –
A36G G43A G59U | < 1e-05 | < 1e-05 | – | –
A36G G43C | < 1e-05 | < 1e-05 | – | –
A36G G66U | < 1e-05 | < 1e-05 | – | < 1e-05
A36U A42G U49A G51A | < 1e-05 | – | – | –

Variant | self-cleavage kobs at 640 uM GlcN6P (glucosamine-6-phosphate [1]) [s⁻¹] | self-cleavage kobs at 2500 uM GlcN6P (glucosamine-6-phosphate [2]) [s⁻¹] | self-cleavage kobs at 160 uM GlcN6P (glucosamine-6-phosphate [3]) [s⁻¹] | self-cleavage kobs at 10000 uM GlcN6P (glucosamine-6-phosphate [4]) [s⁻¹]
A36U C61G C70G | 9.55e-05 ± 2.6e-05 | – | 6.28e-05 ± 2.3e-05 | –
A36U G44C C61U C71A | < 1e-05 | – | – | –
A36U U57G C67G | < 1e-05 | – | – | –
G37A A39U U54C | 0.00016 ± 1.9e-05 | 0.000423 ± 6.7e-05 | 8.28e-05 ± 3.4e-05 | –
G37A A42C G51C | < 1e-05 | – | – | –
G37C G40C A42C | < 1e-05 | < 1e-05 | < 1e-05 | –
G37C G41C U56G C58U | < 1e-05 | – | – | –
G37C G43C | < 1e-05 | < 1e-05 | < 1e-05 | < 1e-05
G37C G59C | < 1e-05 | < 1e-05 | – | < 1e-05
G37C U65A | < 1e-05 | – | < 1e-05 | –
G37U A39C | < 1e-05 | < 1e-05 | < 1e-05 | < 1e-05
G37U A48G C70U | < 1e-05 | – | – | –
G37U G43U C67U | < 1e-05 | < 1e-05 | – | < 1e-05
G37U U57C G59C U69G | < 1e-05 | – | – | –
G38A A42G G43U | < 1e-05 | < 1e-05 | – | –
G38A A64C | < 1e-05 | – | < 1e-05 | < 1e-05
G38A G40A U49G G60U | < 1e-05 | < 1e-05 | < 1e-05 | –
G38C A39C G43A U45G A52U | < 1e-05 | < 1e-05 | – | –
